The values below come from the supplement of paper PMC10928670.

MIC of N. gonorrhoeae strains collected 1971-2005, agar dilution (CLSI M07); ranges 0.03-64 mg/L (penicillin, azithromycin), 0.015-1 (cefixime, ceftriaxone), 0.5-256 (spectinomycin); higher = less susceptible. No active / inactive call per row; the paper counts cefixime and ceftriaxone above 0.25 and azithromycin above 1 mg/L as non-susceptible. The source says 'penicillin'; penicillin G is assumed. Isolates are numbered anew.

What all share (experiment): Agar dilution by CLSI M07.
Background: Agar dilution tests growth on a series of plates holding different concentrations.

Compound in assay [1]: CO/N=C(\C(=O)N[C@@H]1C(=O)N2C(C(=O)O)=C(CSc3nc(=O)c(O)nn3C)CS[C@H]12)c1csc(N)n1 [ceftriaxone]
Compound in assay [2]: CN[C@@H]1[C@H](O)[C@H](NC)[C@H]2O[C@@]3(O)C(=O)C[C@@H](C)O[C@H]3O[C@@H]2[C@H]1O [spectinomycin]
Compound in assay [3]: C=CC1=C(C(=O)O)N2C(=O)[C@@H](NC(=O)/C(=N\OCC(=O)O)c3csc(N)n3)[C@H]2SC1 [cefixime]
Compound in assay [4]: CC[C@H]1OC(=O)[C@H](C)[C@@H](O[C@H]2C[C@@](C)(OC)[C@@H](O)[C@H](C)O2)[C@H](C)[C@@H](O[C@@H]2O[C@H](C)C[C@H](N(C)C)[C@H]2O)[C@](C)(O)C[C@@H](C)CN(C)[C@H](C)[C@@H](O)[C@]1(C)O [azithromycin]
Compound in assay [5]: CC1(C)S[C@@H]2[C@H](NC(=O)Cc3ccccc3)C(=O)N2[C@H]1C(=O)O [penicillin G]

Take “Neisseria gonorrhoeae isolate 70 (GyrA: Wild type, ParC: Wild type, mtrR: Wild type, penA: Type I NonMosaic, ponA: Wild type, porB: Wild type)”: the MIC (as a rule, the least concentration at which growth counts as inhibited) was ≤ 0.015 µg/mL in assay [1]; 16 µg/mL in assay [2]; ≤ 0.015 µg/mL in assay [3]; 0.06 µg/mL in assay [4]; 0.06 µg/mL in assay [5].
As to “Neisseria gonorrhoeae isolate 197 (GyrA: Wild type, ParC: Wild type, mtrR: Wild type, penA: Type I NonMosaic, ponA: Wild type, porB: Wild type)”, the MIC in assay [1] was ≤ 0.015 µg/mL; in assay [2], 16 µg/mL; in assay [3], ≤ 0.015 µg/mL; in assay [4], 0.125 µg/mL; in assay [5], 0.125 µg/mL.
With “Neisseria gonorrhoeae isolate 232 (GyrA: Wild type, ParC: Wild type, mtrR: -35A Del, penA: Type IX NonMosaic, A517G, ponA: L421P, porB: Wild type)”, the MIC in assay [1] was ≤ 0.015 µg/mL; in assay [2] it was 16 µg/mL; in assay [3], ≤ 0.015 µg/mL; in assay [4], 0.25 µg/mL; in assay [5] it was 1 µg/mL.
As to “Neisseria gonorrhoeae isolate 129 (GyrA: S91F, D95N, ParC: S88P, mtrR: -35A Del, G45D, penA: Type X Mosaic, N513Y, ponA: L421P, porB: G120K, A121D)”, the MIC was 0.125 µg/mL in assay [1]; 16 µg/mL in assay [2]; 0.5 µg/mL in assay [3]; 0.125 µg/mL in assay [4]; 4 µg/mL in assay [5].
Regarding “Neisseria gonorrhoeae isolate 10 (GyrA: Wild type, ParC: Wild type, mtrR: -35A Del, penA: Type II NonMosaic, A517G, ponA: Wild type, porB: G120K, A121D)”, the minimal inhibitory concentration (MIC) is ≤ 0.015 µg/mL in assay [1]; 32 µg/mL in assay [2]; ≤ 0.015 µg/mL in assay [3]; 0.06 µg/mL in assay [4]; 32 µg/mL in assay [5].
As for “Neisseria gonorrhoeae isolate 170 (GyrA: Wild type, ParC: Wild type, mtrR: -35A Del, penA: Type XXII NonMosaic, A517G, ponA: Wild type, porB: G120D)”, the MIC in assay [1] was ≤ 0.015 µg/mL; in assay [2], 16 µg/mL; in assay [3], ≤ 0.015 µg/mL; in assay [4], 0.25 µg/mL; in assay [5], 0.25 µg/mL.
For “Neisseria gonorrhoeae isolate 52 (GyrA: Wild type, ParC: Wild type, mtrR: -35A Del, penA: Type XXII NonMosaic, A517G, ponA: L421P, porB: G120K, A121D)”, the MIC in assay [1] was 0.06 µg/mL; in assay [2] it was 16 µg/mL; in assay [3] it was 0.06 µg/mL; in assay [4], 1 µg/mL; in assay [5], > 64 µg/mL.
On to “Neisseria gonorrhoeae isolate 58 (GyrA: Wild type, ParC: Wild type, mtrR: Wild type, penA: Type XXII NonMosaic, A517G, ponA: Wild type, porB: G120D)”, for which the MIC in assay [1] is ≤ 0.015 µg/mL; in assay [2], 16 µg/mL; in assay [3] it was ≤ 0.015 µg/mL; in assay [4], 0.06 µg/mL; in assay [5], 0.25 µg/mL.
For “Neisseria gonorrhoeae isolate 93 (GyrA: Wild type, ParC: Wild type, mtrR: -35A Del, G45D, penA: Type IX NonMosaic, A517G, ponA: L421P, porB: G120K, A121D)”, the MIC in assay [1] stood at 0.03 µg/mL; in assay [2], 32 µg/mL; in assay [3], 0.03 µg/mL; in assay [4], 0.25 µg/mL; in assay [5] it was 2 µg/mL.
For the test system “Neisseria gonorrhoeae isolate 116 (GyrA: S91F, ParC: Wild type, mtrR: G45D, penA: Type IV NonMosaic, A517G, G543S, ponA: L421P, porB: G120K, A121D)”, the MIC in assay [1] came out at 0.03 µg/mL; in assay [2], 16 µg/mL; in assay [3], 0.03 µg/mL; in assay [4], 0.06 µg/mL; in assay [5] it was 2 µg/mL.
As for “Neisseria gonorrhoeae isolate 55 (GyrA: Wild type, ParC: Wild type, mtrR: -35A Del, G45D, penA: Type I NonMosaic, ponA: L421P, porB: G120D, A121D)”, the minimum inhibitory concentration (MIC) in assay [1] is 0.03 µg/mL; in assay [2], 32 µg/mL; in assay [3], ≤ 0.015 µg/mL; in assay [4], 0.5 µg/mL; in assay [5], 1 µg/mL.
The like results for “Neisseria gonorrhoeae isolate 133 (GyrA: Wild type, ParC: Wild type, mtrR: -35A Del, G45D, penA: Type II NonMosaic, A517G, ponA: L421P, porB: G120N, A121D)” were, in that order, 0.06 µg/mL, 16 µg/mL, ≤ 0.015 µg/mL, 0.25 µg/mL and 2 µg/mL.
The like results for “Neisseria gonorrhoeae isolate 173 (GyrA: Wild type, ParC: Wild type, mtrR: -35A Del, penA: Type XXII NonMosaic, A517G, ponA: L421P, porB: G120K, A121D)” were, in that order, 0.03 µg/mL, 64 µg/mL, 0.03 µg/mL, 0.25 µg/mL and 1 µg/mL.
Taken in the same sequence, the figures for “Neisseria gonorrhoeae isolate 176 (GyrA: S91F, D95G, ParC: Wild type, mtrR: -35A Del, penA: Type V Nonmosaic, A517G, G543S, ponA: L421P, porB: G120K, A121D)” were 0.03 µg/mL, 64 µg/mL, 0.03 µg/mL, 0.5 µg/mL and 4 µg/mL.
